Test results reported in PMC4336329 (PLoS ONE, 2015).
In all, about 310,000 compounds went through this assay and about 14,000 (4.5%) showed an effect of 50% or more. The effect is printed as a negative number. Some of the results follow.

Target: human ether-à-go-go-related gene (hERG) potassium channel (human, UniProt Q12809)
Test: primary screen, population patch clamp on CHO cells stably expressing hERG
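Note: peak tail current of the secondary pulse compared with the same well before compound.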

human ether-à-go-go-related gene (hERG) potassium channel, sequence (Q12809 whole entry, looked up): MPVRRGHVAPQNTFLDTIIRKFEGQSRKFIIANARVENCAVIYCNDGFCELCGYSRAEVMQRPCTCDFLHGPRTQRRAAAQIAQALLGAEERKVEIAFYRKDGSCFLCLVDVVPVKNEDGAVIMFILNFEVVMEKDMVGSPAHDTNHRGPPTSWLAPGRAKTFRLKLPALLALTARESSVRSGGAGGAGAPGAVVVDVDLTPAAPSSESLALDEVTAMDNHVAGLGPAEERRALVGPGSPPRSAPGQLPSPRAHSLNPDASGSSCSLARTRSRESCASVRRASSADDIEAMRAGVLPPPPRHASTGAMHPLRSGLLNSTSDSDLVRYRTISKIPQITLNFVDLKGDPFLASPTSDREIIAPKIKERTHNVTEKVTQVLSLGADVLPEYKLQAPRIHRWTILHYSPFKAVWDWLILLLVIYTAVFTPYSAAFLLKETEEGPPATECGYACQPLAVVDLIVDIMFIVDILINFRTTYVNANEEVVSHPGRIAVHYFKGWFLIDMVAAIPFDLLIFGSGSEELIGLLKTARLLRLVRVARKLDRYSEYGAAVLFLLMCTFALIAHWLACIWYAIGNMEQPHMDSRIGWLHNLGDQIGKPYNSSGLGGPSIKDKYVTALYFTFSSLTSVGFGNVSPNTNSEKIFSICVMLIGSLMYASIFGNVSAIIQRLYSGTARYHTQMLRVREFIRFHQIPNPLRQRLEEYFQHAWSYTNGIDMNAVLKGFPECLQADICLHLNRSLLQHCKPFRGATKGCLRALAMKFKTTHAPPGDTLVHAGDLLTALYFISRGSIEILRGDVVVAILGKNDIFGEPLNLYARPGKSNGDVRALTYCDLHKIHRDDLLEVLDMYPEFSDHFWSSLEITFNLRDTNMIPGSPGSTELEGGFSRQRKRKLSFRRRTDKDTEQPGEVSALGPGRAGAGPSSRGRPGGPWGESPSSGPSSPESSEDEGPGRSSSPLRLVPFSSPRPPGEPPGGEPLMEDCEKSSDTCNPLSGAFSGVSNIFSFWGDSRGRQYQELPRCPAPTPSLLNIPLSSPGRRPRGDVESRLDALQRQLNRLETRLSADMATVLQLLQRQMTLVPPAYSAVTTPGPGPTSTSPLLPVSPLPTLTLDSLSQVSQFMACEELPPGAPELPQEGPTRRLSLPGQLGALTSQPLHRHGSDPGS

Structure (SMILES)	hERG current change (%, negative = inhibition) at 10uM [%]
O=S(=O)(Nc1cccc(-c2ccc(N3CCCCCC3)nn2)c1)c1ccccc1Cl	20.2
CCC(C)NC(=O)Cn1nc(Cc2ccncc2)c2ccccc2c1=O (stereo not shown)	4.64
Cc1cccc(NS(=O)(=O)c2ccc(C3CCCCC3)cc2)n1	17.1
Cc1ccsc1C(=O)NCc1ccc(Cl)cc1	11.1
CCCCn1c(=O)c(Cc2ccccc2)c(O)c2ccccc21	9.75
COc1ccc(S(=O)(=O)Nc2nc3ccccc3s2)cc1OC	-6.29
Cc1cc2n(n1)C(c1ccsc1)Nc1ccccc1-2 (stereo not shown)	-20.4
CCN(CC)c1nc2cc(OC)ccc2cc1C#N	0.553
O=C(COc1ccccc1[N+](=O)[O-])NCCC1=CCCCC1	20.5
O=[N+]([O-])c1cc(Cl)ccc1Sc1cccc2cccnc12	10.2
Cc1cc(C(F)(F)F)nn1CC(=O)NNC(=S)Nc1cccc(Cl)c1	26.4
CCOC(=O)c1ccccc1NC(=O)Cn1cnc2c(cnn2-c2ccccc2)c1=O	2.46
C=CCn1c(SCC(=O)Nc2ccc(NC(C)=O)cc2)nc2sc(C)c(C)c2c1=O	6.04
COc1ccc(S(=O)(=O)N2CC(=O)Nc3ccccc32)cc1Cl	13.4
COc1ccc(C=O)cc1OS(=O)(=O)c1ccccc1[N+](=O)[O-]	-3.35
Cn1cc(C(=O)NCCO)c(=O)c2ccccc21	6.95
CC(CC(=O)Nc1ccc(F)cc1)S(=O)(=O)c1ccc2c(c1)NC(=O)CO2 (stereo not shown)	7.5
COc1ccc(C)cc1S(=O)(=O)Nc1cccc(SC)c1	0.767
COc1cccc(C2C(C#N)=C(N)Oc3cc(C)n(Cc4ccccn4)c(=O)c32)c1OC (stereo not shown)	3.7
Cc1ccc(CNC(=O)c2nc3nc(C)cc(C)n3n2)cc1	14.4
CCOc1ccc(N(C(C)C(=O)N2CCOCC2)S(C)(=O)=O)cc1 (stereo not shown)	11
O=C(O)c1ccc(COc2ccccc2C=C2C(=O)c3ccccc3C2=O)cc1	28.2

Structure (SMILES)	hERG current change (%, negative = inhibition) at 10uM [%]
COc1ccc(/C=N/NC(=O)c2ccc(Cl)cc2)cc1Cn1cc(Cl)cn1	7.52
CCOC(=O)c1c(NC(=O)CSc2nnc(Cc3csc(N)n3)n2C)sc(C)c1C	-51.8
O=S(=O)(c1ccc(Cl)cc1)N(Cc1ccccn1)Cc1ccccn1	-15.3
CC(=O)N1CCC(C(=O)NC2CC(C)(C)Cc3c2cnn3-c2ccc(F)cc2)CC1 (stereo not shown)	-25.3
O=C(c1ccc(N2CC3CC(C2)c2cccc(=O)n2C3)c([N+](=O)[O-])c1)N1CCCCC1 (stereo not shown)	-27.9
O=C(NC(NCc1ccccc1)C(Cl)(Cl)Cl)c1cccnc1 (stereo not shown)	6.37
CCCCc1ccc(NC(=O)CSc2nnc(C)c(=O)n2N)cc1	-23.9
Cc1nc(C)c(C(=O)Nc2cccc(F)c2)s1	6.85
O=C(CN1C(=O)C2CC=CCC2C1=O)NC1CCCCC1 (stereo not shown)	18.9
NS(=O)(=O)c1ccc(CCNc2ncnc3c2c(-c2ccccc2)cn3-c2ccc(F)cc2)cc1	4.31
CN(C)C(=O)c1ccc(NC(=O)COC(=O)CC23CC4CC(CC(Br)(C4)C2)C3)cc1	-10.1
COc1cccc(-n2nnnc2SCC(=O)N2CCCc3ccccc32)c1	-11.3
CN(Cc1ccc(F)cc1)C(=O)c1cccc(S(=O)(=O)N2CCN(Cc3ccccc3)CC2)c1	-16
Cc1ccc(S(=O)(=O)NCc2ccccc2)cc1C(=O)N1CCN(c2ccccc2)CC1	-24.6
COc1ccc(C2c3c(oc4ccccc4c3=O)C(=O)N2Cc2ccncc2)cc1OC (stereo not shown)	-9.16
CCNc1nc(Cl)nc(N(NC(C)=O)C(C)C)n1	17.2
CCCN(CCC)C(=O)CSc1nc2n[nH]c(C)c2c(=N)n1-c1ccc(OC)cc1	-35
COc1ccc(C2=CC(=O)CC(c3ccc(OC)cc3)C2)cc1 (stereo not shown)	2.96
COc1ccc(Cc2nnc(NC(=O)c3ccccc3C)s2)cc1	15.4
CC(C)Oc1ccc(CNC(=O)CC(c2ccccc2)c2cc(Cl)ccc2O)cc1 (stereo not shown)	11.8
O=C(O)c1cccc(N2C(=O)c3cccc4cccc(c34)C2=O)c1	12.7
